This note sets out measurements from patent publication US20240209098A1.

Assay [1] concerns the target human Type II collagen (human) (UniProt P02458). As to the kind of experiment: SPR (Biacore 3000), target immobilised on CM5 chip, fusion protein as analyte, Langmuir 1:1. On the technique in general: In SPR one partner is held on a chip, and binding of the other changes the refractive index at the surface.
For assay [2] the target is unchanged. Nature of the assay: ELISA, human Type II collagen coated on the plate, fusion protein titrated, detection with anti-human-IgG antibody. (In general: In an ELISA, binding on a coated surface is turned into a signal by an enzyme label.)

B1: CID 217793, fusion protein n[Col2-BP1_as dimer - VEGF-BP]c (Fc fusion)
chain: IAAKFDEAQSAADSEILHLPNLTEQQRHYFRRWLSDDPSVSTHILTQAQHLNDDQAPKIAAKFDEAQSAADSEILHLPNLTEQQRHYFRRWLSDDPSVSTHILTQAQHLNDDQAPKGGGGSGGGGSGGGGSSDTGRPFVEMYSEIPEIIHMTEGRELVIPCRVTSPNITVTLKKFPLDTLIPDGKRIIWDSRKGFIISNATYKEIGLLTCEATVNGHLYKTNYLTHRQTNTIIDVVLSPSHGIELSVGEKLVLNCTARTELNVGIDFNWEYPSSKHQHKKLVNRDLKTQSGSEMKKFLSTLTIDGVTRSDQGLYTCAASSGLMTKKNSTFVRVHEK[skipping human IgG1 Fc]
By Kd is commonly meant the constant that tells how readily two partners part at equilibrium. A high value points to lower affinity. For B1, the Kd in assay [1] came out at 35 nM.

B2: CID 213182, fusion protein n[VEGF-BP, Col2-BP1 as dimer]c (Fc fusion)
chain: SDTGRPFVEMYSEIPEIIHMTEGRELVIPCRVTSPNITVTLKKFPLDTLIPDGKRIIWDSRKGFIISNATYKEIGLLTCEATVNGHLYKTNYLTHRQTNTIIDVVLSPSHGIELSVGEKLVLNCTARTELNVGIDFNWEYPSSKHQHKKLVNRDLKTQSGSEMKKFLSTLTIDGVTRSDQGLYTCAASSGLMTKKNSTFVRVHEK[skipping human IgG1 Fc]GGGSGGGGSGGGGSIAAKFDEAQSAADSEILHLPNLTEQQRHYFRRWLSDDPSVSTHILTQAQHLNDDQAPKIAAKFDEAQSAADSEILHLPNLTEQQRHYFRRWLSDDPSVSTHILTQAQHLNDDQAPK
Turning to B2, the results for the Kd in assay [1] and in assay [2] were 1.38 nM and 0.1 nM, respectively.

B3: CID 213184, fusion protein n[VEGF-BP, Col2-BP1 as tetramer]c (Fc fusion)
chain: SDTGRPFVEMYSEIPEIIHMTEGRELVIPCRVTSPNITVTLKKFPLDTLIPDGKRIIWDSRKGFIISNATYKEIGLLTCEATVNGHLYKTNYLTHRQTNTIIDVVLSPSHGIELSVGEKLVLNCTARTELNVGIDFNWEYPSSKHQHKKLVNRDLKTQSGSEMKKFLSTLTIDGVTRSDQGLYTCAASSGLMTKKNSTFVRVHEK[skipping human IgG1 Fc]GGGSGGGGSGGGGSIAAKFDEAQSAADSEILHLPNLTEQQRHYFRRWLSDDPSVSTHILTQAQHLNDDQAPKIAAKFDEAQSAADSEILHLPNLTEQQRHYFRRWLSDDPSVSTHILTQAQHLNDDQAPKIAAKFDEAQSAADSEILHLPNLTEQQRHYFRRWLSDDPSVSTHILTQAQHLNDDQAPKIAAKFDEAQSAADSEILHLPNLTEQQRHYFRRWLSDDPSVSTHILTQAQHLNDDQAPK
Consider B3, for which the Kd in assay [1] was 0.15 nM.
